Experimental data from the supplement of paper PMC3334620.
The full ranking holds about 33,000 sequences; the median of “E-score (-0.5 to 0.5)” is about -0.053, and the highest 2% start at about 0.37. The list shows a part of the results.

target: Hap1 (UniProt P0CE41); test: PBM E-score (8-mer binding enrichment) (E-score (-0.5 to 0.5)); higher = stronger / more preferred TF binding; most listed sequences are background and not binding sites; details: protein concentration: 200 nM; construct: GST-DNA-binding domain
Chain of UniProt P0CE41 (P0CE41 whole entry, the tested form may be a part): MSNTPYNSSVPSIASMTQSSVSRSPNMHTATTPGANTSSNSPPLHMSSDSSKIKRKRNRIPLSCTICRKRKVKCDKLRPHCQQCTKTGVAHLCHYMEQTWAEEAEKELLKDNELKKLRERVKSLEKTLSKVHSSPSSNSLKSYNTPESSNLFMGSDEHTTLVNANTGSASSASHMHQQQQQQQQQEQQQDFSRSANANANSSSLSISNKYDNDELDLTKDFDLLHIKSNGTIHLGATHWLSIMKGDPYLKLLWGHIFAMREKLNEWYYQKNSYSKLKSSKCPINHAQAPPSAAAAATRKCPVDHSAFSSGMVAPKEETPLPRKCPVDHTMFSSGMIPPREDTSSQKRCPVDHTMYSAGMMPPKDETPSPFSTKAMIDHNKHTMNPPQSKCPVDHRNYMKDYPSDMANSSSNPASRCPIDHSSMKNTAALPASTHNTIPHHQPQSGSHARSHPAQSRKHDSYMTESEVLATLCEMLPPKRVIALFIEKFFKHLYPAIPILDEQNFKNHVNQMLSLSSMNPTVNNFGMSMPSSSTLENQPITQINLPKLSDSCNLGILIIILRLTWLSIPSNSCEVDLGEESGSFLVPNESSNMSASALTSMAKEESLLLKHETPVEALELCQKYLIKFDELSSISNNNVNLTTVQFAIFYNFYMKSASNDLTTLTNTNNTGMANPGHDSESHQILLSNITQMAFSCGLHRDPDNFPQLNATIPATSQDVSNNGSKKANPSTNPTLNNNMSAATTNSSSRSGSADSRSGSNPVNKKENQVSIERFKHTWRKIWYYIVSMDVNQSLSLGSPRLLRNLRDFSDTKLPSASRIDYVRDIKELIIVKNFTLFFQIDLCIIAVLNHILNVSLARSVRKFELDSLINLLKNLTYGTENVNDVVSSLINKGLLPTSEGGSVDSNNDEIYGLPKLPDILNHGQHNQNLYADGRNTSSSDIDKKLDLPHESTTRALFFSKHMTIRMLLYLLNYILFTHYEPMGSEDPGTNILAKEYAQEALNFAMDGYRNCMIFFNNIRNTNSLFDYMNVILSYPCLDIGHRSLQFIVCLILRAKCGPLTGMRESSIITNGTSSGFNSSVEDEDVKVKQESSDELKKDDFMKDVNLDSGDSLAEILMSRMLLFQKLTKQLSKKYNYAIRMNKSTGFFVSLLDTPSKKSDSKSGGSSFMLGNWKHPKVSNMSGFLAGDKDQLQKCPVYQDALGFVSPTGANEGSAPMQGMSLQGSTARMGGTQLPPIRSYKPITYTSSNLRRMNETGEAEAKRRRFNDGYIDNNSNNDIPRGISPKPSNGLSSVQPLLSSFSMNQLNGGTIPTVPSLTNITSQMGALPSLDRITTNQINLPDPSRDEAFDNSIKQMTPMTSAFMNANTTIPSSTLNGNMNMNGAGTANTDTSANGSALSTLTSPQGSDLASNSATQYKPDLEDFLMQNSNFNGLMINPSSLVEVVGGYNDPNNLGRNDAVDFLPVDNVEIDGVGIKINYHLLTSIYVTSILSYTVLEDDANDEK
Procedure, shortened: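 Detection of bound protein used fluorescent anti-GST, with scans normalised by masliner. The proteins were GST-tagged yeast transcription factors applied at about 100-200 nM to universal all-10-mer Agilent arrays made double-stranded by primer extension. Each ungapped eight-base word, pooled with its reverse complement, was scored with an E-score from the Universal PBM Analysis Suite.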

Row | Sequence | PBM E-score
1 | CCCTAGTA | -0.13
2 | GATAACAA | 0.085
3 | GAAGACTA | -0.0051
4 | GATGGCCC | -0.0457
5 | GCTACTTA | -0.357
6 | ACTAACGG | 0.209
7 | ATGGCGTA | -0.284
8 | TATTCTGA | -0.144
9 | CTATGGAG | -0.202
10 | AAGTTTAC | -0.0737
11 | GCTTGAGA | -0.212
12 | AGTACGGC | 0.0514
13 | ATAGTTTA | -0.152
14 | CTAGACGA | -0.377
15 | ACACCGGG | 0.321
16 | AGACTGGG | -0.0747
17 | CCAGCTCC | 0.0613
18 | GAATTGCA | -0.0685
19 | ATACCTAC | -0.0437
20 | ACTCGAAC | -0.181
21 | GATGACCC | -0.0335
22 | AGACTGCG | -0.236
23 | CTTCACTA | 0.00472
24 | ACGCTAGA | -0.148
25 | ACCGAGGA | 0.309

Row | Sequence | PBM E-score
26 | TAGTGCCA | -0.092
27 | TAGTAAAA | -0.0645
28 | ATCAAGTA | -0.292
29 | ACAATCTG | -0.111
30 | CCATACGA | -0.313
31 | AGTATGTA | -0.162
32 | ACACCGGC | 0.341
33 | CGACTGTA | -0.166
34 | AAGCAGTC | -0.145
35 | TATCCTAA | -0.0421
36 | GTCAATGA | -0.247
37 | ACTGAGCT | -0.133
38 | CTGAGATA | 0.0178
39 | AAAGACTT | -0.288
40 | CAAGGCGC | 0.0297
41 | AAAATGCG | 0.174
42 | GGGTGCAA | 0.172
43 | TAAAGATA | 0.0503
44 | GGGAAAGA | -0.0239
45 | GTTTTCAA | -0.0317
46 | GGAGCATA | 0.211
47 | CCGCCACG | 0.0808
48 | CACCGTTC | -0.0228
49 | ACTATGGG | -0.108
50 | ACTTGGTC | 0.102

Row | Sequence | PBM E-score
51 | AGTCGTCC | 0.0326
52 | ACTGCCAC | -0.217
53 | AAGCATAC | -0.171
54 | GGCGCTGA | 0.018
55 | ATCATGGC | -0.00164
56 | ACATGTCG | -0.0145
57 | AGGAACTA | -0.0416
58 | ATGCCAGG | -0.127
59 | ATAGGAAG | -0.076
60 | CGTGATCA | -0.114
61 | AATCGTTA | -0.0968
62 | TCCACGGA | 0.349
63 | ATATGCCC | 0.0832
64 | ATATCAAG | -0.107
65 | ATAAAGCA | -0.191
66 | CATACAGG | -0.13
67 | AGATGTAA | -0.0625
68 | CCCCTGAG | -0.248
69 | CTATCATC | -0.0812
70 | ACTGAGGG | -0.321
71 | CGGTCCAA | 0.232
72 | CATAGATA | -0.0541
73 | TTCGCGAA | 0.138
74 | CGGAAAGC | 0.189
75 | AAACTTAG | -0.171

Row | Sequence | PBM E-score
76 | ATCTGCCC | 0.0792
77 | TCGATACA | -0.0572
78 | ATTAGGAG | -0.101
79 | ACAGTGAT | -0.158
80 | CCGATAAC | 0.447
81 | AATGCGGG | 0.193
82 | CAGACATC | -0.065
83 | ATGGAAGC | -0.0553
84 | GTTTTGAA | -0.168
85 | GGCGGTAA | 0.373
86 | CCAAGTGA | -0.13
87 | ATCGCACC | 0.103
88 | AAGGTTCC | 0.00065
89 | GGCGTACC | 0.179
90 | TAACGGTA | 0.116
91 | TACTTTGA | -0.271
92 | GGGTCCGA | 0.38
93 | GGATCGCA | -0.0125
94 | CCAGGAGA | -0.0815
95 | CATGGAGA | -0.0788
96 | CCTGATAA | -0.158
97 | CCCCTAAA | -0.0343
98 | CAGGCTGC | -0.319
99 | GTATTAAA | 0.0705
100 | CCTAACAA | -0.247

Row | Sequence | PBM E-score
101 | CATCGCTC | 0.154
102 | TTGTCAAA | -0.0715
103 | GTACTCAC | -0.18
104 | AAGTAAAG | 0.00599
105 | TAGGTAGA | -0.104
106 | ATTCCCAG | 0.136
107 | CCTTCAAA | -0.0271
108 | CGTCTCTA | -0.0739
109 | ATATGCTA | -0.044
110 | GCAAATAA | 0.152
111 | AACCGTCA | 0.0148
112 | CTGGCGAC | -0.183
113 | AACCTTCG | 0.11
114 | CTTGAATA | -0.0894
115 | CCTCCCAA | -0.163
116 | ACGCTGCT | -0.21
117 | GAACTAGA | -0.0376
118 | GGAGGAGA | 0.0576
119 | CAAATTGC | -0.055
120 | CCGGTGAC | 0.315
121 | ACTAGCAC | -0.17
122 | CTCCGATA | 0.432
123 | AGTTGTAA | -0.205
124 | ATTTTATA | 0.103
125 | GCTTCTAC | -0.152

Row | Sequence | PBM E-score
126 | AGCAATGG | 0.016
127 | ATGGTGAG | -0.179
128 | GACCAGTC | -0.119
129 | AGGACAGA | -0.241
130 | AGGAATGA | -0.0117
131 | GTGCGACA | -0.138
132 | AGTTAGTC | 0.0274
133 | ACGCAAGT | -0.231
134 | CGTATCGA | -0.196
135 | CGTGGGCA | -0.295
136 | CGTGAGAA | 0.00234
137 | AACATTGA | -0.111
138 | CCACTCGA | -0.103
139 | CGCGGGAC | 0.217
140 | CATGGCAC | 0.178
141 | CACTTCCG | 0.191
142 | GGCTAGTA | -0.0702
143 | AGTTAGGA | -0.104
144 | ACTTCCCG | 0.224
145 | ACCCTCGT | -0.113
146 | AATTGCGC | 0.253
147 | CATGGTAA | -0.168
148 | ACGTATAC | -0.0716
149 | CTTTCCAC | 0.0633
150 | ACCCCCCT | -0.248

Row | Sequence | PBM E-score
151 | CAACAATA | -0.13
152 | TACTGTCA | -0.181
153 | AGGATTCA | -0.12
154 | CTGGAGTC | -0.208
155 | CTCCAAGA | -0.276
156 | CTACCGAA | 0.0576
157 | CGCCTAAC | 0.00163
158 | GCTAGTGA | -0.111
159 | CCGGTTAG | 0.308
160 | CGGCGCAG | 0.136
161 | ACCCTCAT | -0.181
162 | AGTACCAC | -0.148
163 | AACGAGTG | -0.214
164 | TAACAGGA | -0.161
165 | ATACTCCG | 0.407
166 | GCCGATAC | 0.417
167 | CGAAATGC | 0.186
168 | CACGCATC | 0.113
169 | GGAGTTTA | 0.336
170 | AACGTTCC | 0.105
171 | CTTGAGAA | -0.33
172 | ATTTCGTA | -0.104
